{"source": "PubChem BioAssay AID1240", "about": "(Sanford-Burnham Center for Chemical Genomics, 2008)", "note": "Hit rate of the full screen: of about 50,000 compounds, about 800 (1.6%) showed an effect of 50% or more. This is one part of the list."}
{"molecular_target": "Bcl-2-like protein 10 (Homo sapiens) (UniProt Q9HD36)", "sequence (Q9HD36 whole entry, looked up)": "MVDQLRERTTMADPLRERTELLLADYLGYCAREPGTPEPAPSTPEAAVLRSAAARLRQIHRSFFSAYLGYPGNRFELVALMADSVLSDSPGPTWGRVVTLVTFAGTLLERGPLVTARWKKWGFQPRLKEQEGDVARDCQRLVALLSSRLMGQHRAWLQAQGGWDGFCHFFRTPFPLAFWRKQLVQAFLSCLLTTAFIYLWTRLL", "experiment": "Phenotype converters, Bcl-B/TR3 peptide binding displacement, primary biochemical FP (AID 1240);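 further: 0% = Bcl-B with tracer peptide and DMSO and 100% = tracer peptide lacking Bcl-B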", "details": "GST-Bcl-B / FITC-TR3 peptide fluorescence polarization; stronger effect = higher value; compound at 3.75 mg/L", "units": {"displacement": "%"}}
{"compound": "COc1ccc(-c2nnc(Sc3nc4ccc([N+](=O)[O-])cc4s3)n2-c2ccccc2)cc1", "displacement": 16.8}
{"compound": "CCCOc1cccc(C(=O)Nc2ccc(C(=O)Nc3ccccc3C(=O)O)cc2)c1", "displacement": -10.9}
{"compound": "O=C(COc1ccc(/C=N/NS(=O)(=O)c2ccccc2)cc1)Nc1ccccc1", "displacement": -1.8}
{"compound": "Cc1ccc(C(=O)Nc2ccccc2C(=O)NC(Cc2ccccc2)C(=O)O)cc1", "note": "(stereo not given)", "displacement": 8.4}
{"compound": "CCOc1ccc(C(=O)N2CCOCC2)cc1", "displacement": 3}
{"compound": "Cc1ccc(OCCNc2cc(N3CCCC3)ccc2[N+](=O)[O-])cc1C", "displacement": 25.3}
{"compound": "Cc1nn(C(=O)CN2C(=O)c3ccccc3C2=O)c(C)c1Br", "displacement": 5.6}
{"compound": "Cc1ccc2nc(SCc3ccc([N+](=O)[O-])cc3)[nH]c2c1", "displacement": -11.6}
{"compound": "O=S1(=O)CCC(NC(=S)N/N=C/c2cccc(Oc3ccccc3)c2)C1", "note": "(stereo not given)", "displacement": 0}
{"compound": "NNC(=O)c1cc(-c2ccc3ccccc3c2)n[nH]1", "displacement": -23.1}
{"compound": "CCOC(=O)C1=C(O)/C(=C/c2ccc(CNC(=O)C(=O)Nc3ccc(C)cc3)o2)N=C1C", "displacement": 3.3}
{"compound": "CCOP(=O)(O)COc1ccc([N+](=O)[O-])cc1", "displacement": -4.8}
{"compound": "CC(C)OC(=O)COc1cc2oc(=O)c3c(c2cc1Cl)CCCC3", "displacement": -3.2}
{"compound": "CCOc1ccccc1NC(=O)c1c(NC(=O)Cc2ccccc2)sc2c1CCC2", "displacement": -5.8}
{"compound": "CC(=O)c1cnc2cc(-c3cccc(Br)c3)nn2c1C", "displacement": -10}
{"compound": "COc1ccc(Cl)cc1NC(=O)CCCOc1ccc(Cl)cc1Cl", "displacement": -9.3}
{"compound": "CCOC(=O)C1=C(C)N(C)C(=O)NC1c1ccc(O)cc1", "note": "(stereo not given)", "displacement": -5.1}
{"compound": "Oc1ccccc1C=NC1=NN(c2cccc(C(F)(F)F)c2)CC1", "displacement": 3.8}
{"compound": "COc1ccc(-c2nnc(NC(=O)c3ccccc3OC)s2)cc1", "displacement": 6.6}
{"compound": "Nc1ccc2nn(-c3ccc([N+](=O)[O-])cc3)nc2c1", "displacement": -8.4}
{"compound": "COc1ccc(CNC(=O)COc2ccccc2)cc1", "displacement": -2.3}
{"compound": "Cc1cc(C)c(C)c(OCCOCCN2CCN(C)CC2)c1", "displacement": -9.4}
{"compound": "COc1ccc(NC(=O)/C(C#N)=C/c2cn(CC(=O)Nc3ccccc3)c3ccccc23)cc1", "displacement": -21.4}
{"compound": "Cc1cccc(/C(N)=N/OC(=O)c2cccc(I)c2)c1", "displacement": 6.4}
{"compound": "O=C(CCN1C(=O)/C(=C\\c2ccc(Cl)cc2)SC1=S)Nc1cccc(C(=O)O)c1", "displacement": -6.4}
{"compound": "NC1=NC(=O)/C(=C\\c2ccccc2Cl)S1", "displacement": 13.2}
{"compound": "CCOc1ccc(C(=O)Nc2ccc(NC(=O)c3ccco3)c(OC)c2)cc1", "displacement": -40}
{"compound": "Cc1ccc(C(=O)Oc2ccc(NS(=O)(=O)c3cc(C)ccc3C)cc2)cc1", "displacement": 9.5}
{"compound": "NC(=O)C(c1ccccc1)c1ccccn1", "note": "(stereo not given)", "displacement": 15.8}
{"compound": "CCC1=NC(C(F)(F)F)(C(F)(F)F)N=C(N2CCCCC2)O1", "displacement": 12.7}
{"compound": "COc1ccc(Cl)cc1N=Cc1c(O)[nH]c(=O)[nH]c1=O", "displacement": 10.3}
{"compound": "CCOc1ccc(C2C(C(=O)OC(C)C)C(=O)CC(C)(O)C2C(=O)OC(C)C)cc1", "note": "(stereo not given)", "displacement": -3.6}
{"compound": "N#C/C(=C/c1ccc(F)cc1)C(=O)Nc1cccc(Br)c1", "displacement": -19.5}
{"compound": "COc1cc(NC(=O)c2cnccn2)c(OC)cc1Cl", "displacement": 28.7}
{"compound": "CCOc1ccc(NC(=O)CN(c2ccc(Oc3ccccc3)cc2)S(C)(=O)=O)cc1", "displacement": -0.6}
{"compound": "C=CCn1c(N)c(C(=O)NCC2CCCO2)sc1=S", "note": "(stereo not given)", "displacement": 9.8}
{"compound": "CCOc1ccc(N2C(=O)NC(=O)/C(=C\\c3ccc(OCC(=O)O)c(Br)c3)C2=O)cc1", "displacement": -27}
{"compound": "CCOC(=O)c1c(N)sc(C(=O)OC(C)(C)C)c1C", "displacement": 3.9}
{"compound": "Cc1ccc(/C=C/C(=O)Nc2cccc(Cl)c2Cl)o1", "displacement": 19}
{"compound": "CCc1ccccc1NC(=O)CN(c1ccc(Oc2ccccc2)cc1)S(C)(=O)=O", "displacement": -0.3}
{"compound": "CCN(C(=O)c1cc2cc(Cl)cc(Cl)c2oc1=O)c1ccccc1", "displacement": 13.8}
{"compound": "C=CCN(CC=C)C(=O)C(C)Oc1ccccc1", "note": "(stereo not given)", "displacement": 8.3}
{"compound": "Cc1ccc(NC(=O)COc2ccc(Cl)cc2)c([N+](=O)[O-])c1", "displacement": -0.3}
{"compound": "CC(NC(=O)C12CC3CC(CC(C3)C1)C2)C(=O)Nc1ccc(S(=O)(=O)Nc2nccs2)cc1", "note": "(stereo not given)", "displacement": 15.9}
{"compound": "Cc1sc(NC(=O)c2ccc(F)cc2)c(C(=O)OC(C)C)c1C", "displacement": 1.6}
{"compound": "COc1ccc(CN2CCN(C3CCC(C)CC3)CC2)c(OC)c1", "note": "(stereo not given)", "displacement": -16.3}
{"compound": "COc1ccc(NC(=O)c2cccc(C)c2)cc1Cl", "displacement": 3}
{"compound": "Cc1nc2c(-c3ccccc3)c(C)nn2c(C(C)(C)C)c1C", "displacement": 5}
{"compound": "CC1=NN(c2ccccc2)C(=O)/C1=C/c1ccccc1OS(=O)(=O)c1ccccc1[N+](=O)[O-]", "displacement": 17.4}
{"compound": "O=C(/C=C/c1ccc2c(c1)OCO2)n1nnc2ccccc21", "displacement": 7.1}
{"compound": "Cc1ccc(C(=O)N/C(=C\\c2cccs2)C(=O)NCc2ccncc2)cc1", "displacement": 10.8}
{"compound": "Cc1cc(C)c(C(=O)/C(=C/c2cccc(Br)c2)c2ccccc2)c(=O)[nH]1", "displacement": -13.3}
{"compound": "CC(=O)Nc1ccc(S(=O)(=O)N2c3ccccc3C(Nc3ccccc3)CC2C)cc1", "note": "(stereo not given)", "displacement": 3}
{"compound": "O=C(NCCC1=CCCCC1)c1cccc([N+](=O)[O-])c1", "displacement": -5.1}
{"compound": "CCOc1c(Cl)cc(/C=C2\\C(=O)NC(=O)N(c3cc(C)cc(C)c3)C2=O)cc1OC", "displacement": -12.2}
